The supplement of paper PMC11417369
The other results are listed elsewhere or left out.

Test system: PfSIP2 AP2 domain 1 (GST-tagged)
Assay: gcPBM binding intensity (ln(normalized median fluorescence intensity)); higher = stronger DNA binding
Outline: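 Binding intensity values are the highest Masliner-normalised natural-log median intensity among replicate spots of either probe orientation. The binding step lasted 1 h in 1× PBS with 1% milk, 0.2 mg/ml BSA, 0.5% salmon testes DNA and 0.03% Triton X-100, using GST-tagged P. falciparum DNA-binding domains expressed in E. coli on an Agilent 4 × 180k array of primer-extended double-stranded 36-bp intergenic genomic probes plus negative controls. Alexa488 anti-GST antibody and a 488 nm scan detected bound protein.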

In order of rising “gcPBM binding intensity (ln)” value:
1. GGAAACTAAAGGAATAAAACTATGGAAATTAATTAA [CACACA_negctrl_site1647]  6.64
2. TACCATGTTCAAATTACACACATATAATCTAATATA [CACACA_site2008]  6.78
3. CACAAAAATAAATATAAACACACAATAAATAAATAA [CACACA_site8197]  6.79
4. ATATAAATATTAAATACACACATTTTTGATTAGGTT [CACACA_site7461]  6.82
5. TACTATTTAAAATATGAACACACATTATTTGTTTTA [CACACA_site8870]  6.85
6. ATATTTATTTAATGAACACACGATATATTATTTTAT [CACACA_site1602]  6.86
7. AATAAATAAAAAATTACACACATATTTATAAATATA [CACACA_site7584]  6.86
8. TAAATTTATAAATCACGTACATATTTATTTATATTT [XGTACX_site4532]  6.87
9. TAAAATAAGTTAAAAAGTACATAATTATAATAAATA [XGTACX_site8108]  6.89
10. TAAATTAAAAGACACACACACAAAAAAAAAAAAAAA [CACACA_site7131]  6.91
11. TTATTTATTTTTTATACACACAATTATCTTTTTAAG [CACACA_site6162]  6.93
12. TGTTAACTTAAAAAAATACCTACGGAAAAATCACAA [TGCATGCA_negctrl_site433]  6.93
13. TAAAAACATTTAAATTGTACGGAAATAAAAATTTTT [XGTACX_site8225]  6.94
14. AGATGATATAATGGCACACAAATATTTTATTATAAA [CACACA_site3553]  6.95
15. TCATATAATCAAATATGTACATATTTTCAATTGAAT [XGTACX_site6831]  6.97
16. TATTTCGTAATTTAATAATATACAAGAAATATATAT [XGTACX_negctrl_site143]  6.98
17. ATTTTTTTTAATTTGTACAAATTTTGTTCACAATTT [CACACA_negctrl_site1301]  6.99
18. TACAAAATACAAAAATGTACATAAAAATTTATAAAA [XGTACX_site6861]  6.99
19. ATATTAAAATATAATCGTACAATTAAATTTTTTTTT [XGTACX_site2739]  6.99
20. CACAAAAATAAACACACACACATATATATTTATTAT [CACACA_site5923]  7.03
21. ATATAATTTGATGGTTAACACACATATATATTATAT [CACACA_site8775]  7.04
22. TTATAATAGTTAATATGTACATATTTAATAAATAAT [XGTACX_site3183]  7.05
23. ATTGACGTCATATAAACATGCACATTTTGGATGTTT [TGCATGCA_site985]  7.06
24. CATATAATAAAAAATGTACACACATAAGAAAATTTA [CACACA_site8943]  7.08
25. TAAAATAATAAAACAACACACAAATAGTTAAAATAG [CACACA_site1680]  7.1
26. AAAAGAAAAAAAAGTACACACATGTATATTAATCGT [CACACA_site2528]  7.11
27. AATAAAAATATATCCACACACATATATATATATGTA [CACACA_site576]  7.13
28. TATGTGTATAATAAAAGTACATATATTATTATATAA [XGTACX_site8556]  7.14
29. TTTGTTTTTATTTACACATGCAAAAAAAAAAAAAAA [TGCATGCA_site655]  7.16
30. AAAATGATAATACCAAGTACACATATGAAAAATACA [XGTACX_site6763]  7.18
31. ACAATGAAATATTCATGTACATATAAATAATAGTGT [XGTACX_site3762]  7.21
32. TTTTTTTTAAATTGTGGTACACAAATTCATATATAT [XGTACX_site8944]  7.21
33. ATATGAATATATATATGTACTAATTAGTAGTTTACG [XGTACX_site6273]  7.22
34. GTCATATTATTATTACGTACTTAAATATATAATATA [XGTACX_site3405]  7.23
35. TAAATATAATAAGAACAAACAAAATAGTACAATATA [TGCATGCA_negctrl_site364]  7.29
36. CACTTCATAAAAATTGCACACATATAATAATGTACA [CACACA_site8692]  7.43
37. TAAATCATTTATTAAGTGCAATATTCTTTTTGAGAT  7.44
38. TACAGATACGGACACACACACACACCCAGACAAAAA [CACACA_site4432]  7.54
39. ATATAGAATATATTAACATGCAATAAGTAAAGGGGG [TGCATGCA_site1022]  7.91
40. ATTCAAAATTATAGGTGTACGTATTTTTTTTTTTTT [XGTACX_site7177]  8.4
41. CCCCCCCACGAACACACACACATACATACCACATAT [CACACA_site7149]  9.05
42. ATATATATATATATTCCACACACACCCAAAAAAAAA [CACACA_site9215]  9.32
43. TGTTTTCCCTTTAGTGTGCACGTATTTCTATTAACA [GTGCAC_site9847]  10
44. ATAATTTCATAATACGTGCACATAATATATAAAAAA  10.5
